# Results published in the supplement of paper PMC8728848.
# The list shows a part of the results.
# B1: Jacalin (Artocarpus integrifolia) (protein)
# chain: MAYSSLLSLSVLALLFSISSADTRKWFLANGINQNPIGIIEAAVGVSEDLLNLNGMEAKNDEQSGISQTVIVGPWGAKVSTSSNGKAFDDGAFTGIREINLSYNKETAIGDFQVVYDLNGSPYVGQNHKSFITGFTPVKISLDFPSEYIMEVSGYTGNVSGYVVVRSLTFKTNKKTYGPYGVTSGTPFNLPIENGLIVGFKGSIGYWLDYFSMYLSL
# What was measured:
# Experiment in all cases: glycan array binding signal (z-score within array); higher = stronger binding
# Conditions in all cases: glycan notation: IUPAC condensed, linker removed
# [1] = molecular target: Neu5Ac(a2-3)Gal(b1-4)GlcNAc(b1-2)[Neu5Ac(a2-3)Gal(b1-4)GlcNAc(b1-6)]Man(a1-6)[Neu5Ac(a2-3)Gal(b1-4)GlcNAc(b1-2)Man(a1-3)][GlcNAc(b1-4)]Man(b1-4)GlcNAc(b1-4)GlcNAc
# How it was run: (§1)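 The binding signal is a Z-score computed within each array and averaged over linkers. Arrays of the same protein sequence at different concentrations or buffers were also averaged together. Data originate from 3228 arrays in the Consortium for Functional Glycomics database, kept only where the protein sequence was available.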
# [2] = molecular target: Neu5Ac(a2-3)Gal(b1-4)GlcNAc(b1-3)Gal
# How it was run: as §1
# [3] = molecular target: Neu5Ac(a2-3)Gal(b1-4)GlcNAc(b1-3)Gal(b1-3)GlcNAc
# How it was run: as §1
# [4] = molecular target: Neu5Ac(a2-3)Gal(b1-4)GlcNAc(b1-3)Gal(b1-4)GlcNAc
# How it was run: as §1
# [5] = molecular target: Neu5Ac(a2-3)Gal(b1-4)GlcNAc(b1-3)Gal(b1-4)GlcNAc(b1-2)Man(a1-3)[Neu5Ac(a2-3)Gal(b1-4)GlcNAc(b1-3)Gal(b1-4)GlcNAc(b1-2)Man(a1-6)]Man(b1-4)GlcNAc(b1-4)GlcNAc
# How it was run: as §1
# [6] = molecular target: Neu5Ac(a2-3)Gal(b1-4)GlcNAc(b1-3)Gal(b1-4)GlcNAc(b1-3)Gal(b1-4)GlcNAc
# How it was run: as §1
# [7] = molecular target: Neu5Ac(a2-3)Gal(b1-4)GlcNAc(b1-3)Gal(b1-4)GlcNAc(b1-3)Gal(b1-4)GlcNAc(b1-2)Man(a1-3)[Neu5Ac(a2-3)Gal(b1-4)GlcNAc(b1-3)Gal(b1-4)GlcNAc(b1-3)Gal(b1-4)GlcNAc(b1-2)Man(a1-6)]GalNAc
# How it was run: as §1
# [8] = molecular target: Neu5Ac(a2-3)Gal(b1-4)GlcNAc(b1-3)Gal(b1-4)GlcNAc(b1-3)GalNAc
# How it was run: as §1
# [9] = molecular target: Neu5Ac(a2-3)Gal(b1-4)GlcNAc(b1-3)Gal(b1-4)GlcNAc(b1-3)[Neu5Ac(a2-3)Gal(b1-4)GlcNAc(b1-3)Gal(b1-4)GlcNAc(b1-6)]GalNAc
# How it was run: as §1
# [10] = molecular target: Neu5Ac(a2-3)Gal(b1-4)GlcNAc(b1-3)Gal(b1-4)GlcNAc(b1-6)[Gal(b1-3)]GalNAc
# How it was run: as §1
# [11] = molecular target: Neu5Ac(a2-3)Gal(b1-4)GlcNAc(b1-3)Gal(b1-4)[Fuc(a1-3)]GlcNAc
# How it was run: as §1
# [12] = molecular target: Neu5Ac(a2-3)Gal(b1-4)GlcNAc(b1-3)GalNAc
# How it was run: as §1
# [13] = molecular target: Neu5Ac(a2-3)Gal(b1-4)GlcNAc(b1-3)[Neu5Ac(a2-3)Gal(b1-4)GlcNAc(b1-6)]GalNAc
# How it was run: as §1
# [14] = molecular target: Neu5Ac(a2-3)Gal(b1-4)GlcNAc(b1-6)GalNAc
# How it was run: as §1
# [15] = molecular target: Neu5Ac(a2-3)Gal(b1-4)GlcNAc(b1-6)[Gal(b1-3)]GalNAc
# How it was run: as §1
# [16] = molecular target: Neu5Ac(a2-3)Gal(b1-4)GlcNAc(b1-6)[Neu5Ac(a2-3)Gal(b1-3)]GalNAc
# How it was run: as §1
# [17] = molecular target: Neu5Ac(a2-3)Gal(b1-4)GlcNAc6S
# How it was run: as §1
# [18] = molecular target: Neu5Ac(a2-3)Gal(b1-4)[Fuc(a1-3)]GlcNAc
# How it was run: as §1
# [19] = molecular target: Neu5Ac(a2-3)Gal(b1-4)[Fuc(a1-3)]GlcNAc(b1-2)Man
# How it was run: as §1
# [20] = molecular target: Neu5Ac(a2-3)Gal(b1-4)[Fuc(a1-3)]GlcNAc(b1-3)Gal
# How it was run: as §1
# [21] = molecular target: Neu5Ac(a2-3)Gal(b1-4)[Fuc(a1-3)]GlcNAc(b1-3)Gal(b1-4)GlcNAc
# How it was run: as §1
# [22] = molecular target: Neu5Ac(a2-3)Gal(b1-4)[Fuc(a1-3)]GlcNAc(b1-3)Gal(b1-4)[Fuc(a1-3)]GlcNAc(b1-3)Gal(b1-4)[Fuc(a1-3)]GlcNAc
# How it was run: as §1
# [23] = molecular target: Neu5Ac(a2-3)Gal(b1-4)[Fuc(a1-3)]GlcNAc(b1-3)GalNAc
# How it was run: as §1
# [24] = molecular target: Neu5Ac(a2-3)Gal(b1-4)[Fuc(a1-3)]GlcNAc(b1-6)[Gal(b1-3)]GalNAc
# How it was run: as §1
# [25] = molecular target: Neu5Ac(a2-3)Gal(b1-4)[Fuc(a1-3)]GlcNAc(b1-6)[Neu5Ac(a2-3)Gal(b1-3)]GalNAc
# How it was run: as §1
# [26] = molecular target: Neu5Ac(a2-3)Gal(b1-4)[Fuc(a1-3)]GlcNAc6S
# How it was run: as §1
# [27] = molecular target: Neu5Ac(a2-3)Gal6S(b1-4)GlcNAc
# How it was run: as §1
# [28] = molecular target: Neu5Ac(a2-3)Gal6S(b1-4)[Fuc(a1-3)]GlcNAc
# How it was run: as §1
# Neu5Ac(a2-3)GalNAc = molecular target: Neu5Ac(a2-3)GalNAc
# How it was run: as §1
# [29] = molecular target: Neu5Ac(a2-3)GalNAc(b1-4)GlcNAc
# How it was run: as §1
# [30] = molecular target: Neu5Ac(a2-3)[GalNAc(b1-4)]Gal(b1-4)Glc
# How it was run: as §1
# [31] = molecular target: Neu5Ac(a2-3)[GalNAc(b1-4)]Gal(b1-4)GlcNAc
# How it was run: as §1
# [32] = molecular target: Neu5Ac(a2-3)[GalNAc(b1-4)]Gal(b1-4)GlcNAc(b1-3)GalNAc
# How it was run: as §1
# [33] = molecular target: Neu5Ac(a2-3)[Neu5Ac(a2-6)]GalNAc
# How it was run: as §1
# Neu5Ac(a2-6)Gal = molecular target: Neu5Ac(a2-6)Gal
# How it was run: as §1
# [34] = molecular target: Neu5Ac(a2-6)Gal(b1-3)GlcNAc(b1-3)[Gal(b1-4)GlcNAc(b1-6)]Gal(b1-4)Glc
# How it was run: as §1
# Neu5Ac(a2-6)Gal(b1-4)Glc = molecular target: Neu5Ac(a2-6)Gal(b1-4)Glc
# How it was run: as §1
# [35] = molecular target: Neu5Ac(a2-6)Gal(b1-4)GlcNAc
# How it was run: as §1
# [36] = molecular target: Neu5Ac(a2-6)Gal(b1-4)GlcNAc(b1-2)Man
# How it was run: as §1
# [37] = molecular target: Neu5Ac(a2-6)Gal(b1-4)GlcNAc(b1-2)Man(a1-3)Man(b1-4)GlcNAc(b1-4)GlcNAc
# How it was run: as §1
# [38] = molecular target: Neu5Ac(a2-6)Gal(b1-4)GlcNAc(b1-2)Man(a1-3)[Gal(b1-4)GlcNAc(b1-2)Man(a1-6)]Man(b1-4)GlcNAc(b1-4)GlcNAc
# How it was run: as §1
# [39] = molecular target: Neu5Ac(a2-6)Gal(b1-4)GlcNAc(b1-2)Man(a1-3)[GlcNAc(b1-2)Man(a1-6)]Man(b1-4)GlcNAc(b1-4)GlcNAc
# How it was run: as §1
# [40] = molecular target: Neu5Ac(a2-6)Gal(b1-4)GlcNAc(b1-2)Man(a1-3)[GlcNAc(b1-4)][Neu5Ac(a2-6)Gal(b1-4)GlcNAc(b1-2)Man(a1-6)]Man(b1-4)GlcNAc(b1-4)GlcNAc
# How it was run: as §1
# [41] = molecular target: Neu5Ac(a2-6)Gal(b1-4)GlcNAc(b1-2)Man(a1-3)[Man(a1-6)]Man(b1-4)GlcNAc(b1-4)GlcNAc
# How it was run: as §1
# [42] = molecular target: Neu5Ac(a2-6)Gal(b1-4)GlcNAc(b1-2)Man(a1-3)[Neu5Ac(a2-3)Gal(b1-4)GlcNAc(b1-2)Man(a1-6)]Man(b1-4)GlcNAc(b1-4)GlcNAc
# How it was run: as §1
binder,measurement,setting,value
B1,glycan array binding signal (z-score),[1],-0.259
same,glycan array binding signal (z-score),[2],-0.282
same,glycan array binding signal (z-score),[3],-0.28
same,glycan array binding signal (z-score),[4],-0.288
same,glycan array binding signal (z-score),[5],0.008
same,glycan array binding signal (z-score),[6],-0.295
same,glycan array binding signal (z-score),[7],0.501
same,glycan array binding signal (z-score),[8],0.779
same,glycan array binding signal (z-score),[9],-0.224
same,glycan array binding signal (z-score),[10],-0.212
same,glycan array binding signal (z-score),[11],-0.274
same,glycan array binding signal (z-score),[12],0.375
same,glycan array binding signal (z-score),[13],-0.276
same,glycan array binding signal (z-score),[14],-0.268
same,glycan array binding signal (z-score),[15],-0.276
same,glycan array binding signal (z-score),[16],-0.287
same,glycan array binding signal (z-score),[17],-0.284
same,glycan array binding signal (z-score),[18],-0.272
same,glycan array binding signal (z-score),[19],-0.271
same,glycan array binding signal (z-score),[20],-0.274
same,glycan array binding signal (z-score),[21],-0.261
same,glycan array binding signal (z-score),[22],-0.25
same,glycan array binding signal (z-score),[23],-0.006
same,glycan array binding signal (z-score),[24],-0.205
same,glycan array binding signal (z-score),[25],-0.244
same,glycan array binding signal (z-score),[26],-0.252
same,glycan array binding signal (z-score),[27],-0.273
same,glycan array binding signal (z-score),[28],-0.294
same,glycan array binding signal (z-score),Neu5Ac(a2-3)GalNAc,0.896
same,glycan array binding signal (z-score),[29],-0.285
same,glycan array binding signal (z-score),[30],-0.261
same,glycan array binding signal (z-score),[31],-0.28
same,glycan array binding signal (z-score),[32],0.492
same,glycan array binding signal (z-score),[33],-0.268
same,glycan array binding signal (z-score),Neu5Ac(a2-6)Gal,-0.271
same,glycan array binding signal (z-score),[34],-0.278
same,glycan array binding signal (z-score),Neu5Ac(a2-6)Gal(b1-4)Glc,-0.263
same,glycan array binding signal (z-score),[35],-0.257
same,glycan array binding signal (z-score),[36],-0.251
same,glycan array binding signal (z-score),[37],-0.253
same,glycan array binding signal (z-score),[38],-0.254
same,glycan array binding signal (z-score),[39],-0.259
same,glycan array binding signal (z-score),[40],-0.274
same,glycan array binding signal (z-score),[41],-0.26
same,glycan array binding signal (z-score),[42],-0.241
